{"source": "PubChem BioAssay AID1030", "about": "(National Center for Advancing Translational Sciences (NCATS), 2008)", "note": "Hit rate of the full screen: of about 220,000 compounds, about 16,000 (7.3%) were called active. Inconclusive results, whose numbers are uncertain, are shown with a selection of clear calls. Calls follow the shape of the dose curve; as a rule, active = well fitted inhibition curve with a large enough effect (not every such curve was filed as active); inconclusive = small, poorly fitted or top-dose-only effect, or another doubt; inactive = no such curve, though single readings can be large or run the other way. Potencies of inconclusive entries are left out as doubtful fits. Potency is read from the fitted curve at half-maximal effect; tags tell the direction and shape of the fitted curve.", "data": [{"target": "Aldehyde dehydrogenase 1A1 (Homo sapiens) (UniProt P00352)", "sequence (P00352 whole entry, looked up)": "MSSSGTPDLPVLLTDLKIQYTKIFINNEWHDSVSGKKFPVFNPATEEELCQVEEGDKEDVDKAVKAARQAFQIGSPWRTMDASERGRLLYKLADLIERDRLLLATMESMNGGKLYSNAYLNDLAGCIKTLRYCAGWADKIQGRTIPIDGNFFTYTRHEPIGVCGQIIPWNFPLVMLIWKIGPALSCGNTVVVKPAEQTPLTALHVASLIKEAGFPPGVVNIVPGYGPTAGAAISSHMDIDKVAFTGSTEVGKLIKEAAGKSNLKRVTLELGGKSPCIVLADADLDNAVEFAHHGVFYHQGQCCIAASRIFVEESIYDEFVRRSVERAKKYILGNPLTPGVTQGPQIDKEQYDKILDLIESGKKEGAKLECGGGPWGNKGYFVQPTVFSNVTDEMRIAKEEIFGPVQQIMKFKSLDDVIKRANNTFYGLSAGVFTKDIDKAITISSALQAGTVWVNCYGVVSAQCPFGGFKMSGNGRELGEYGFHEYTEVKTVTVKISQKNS", "assay": "qHTS Assay for Inhibitors of Aldehyde Dehydrogenase 1 (ALDH1A1);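 as to activity, negative = inhibition: plate controls were no enzyme wells and a reference inhibitor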", "details": "Purified ALDH1A1, NADH fluorescence, propionaldehyde substrate; series mostly up to 75.3 µM", "values": [{"smiles": "O=C(C[n+]1ccc(Cc2ccccc2)cc1)Nc1ccc([N+](=O)[O-])cc1Cl", "Potency": "active: 20 µM"}, {"smiles": "Cc1nnc2sc(-c3cccc4ccccc34)nn12", "Potency": "inconclusive [inhibitor, partial curve]"}, {"smiles": "COCc1nnc(NC(=O)c2ccc(Cl)cc2[N+](=O)[O-])s1", "Potency": "inconclusive [inhibitor, single point]"}, {"smiles": "Clc1ccc(-n2c(SC/C=C/c3ccccc3)nnc2-c2cccnc2)cc1", "Potency": "inconclusive [inhibitor, single point]"}, {"smiles": "COc1ccc(/C=C2\\OC(=S)N(C)C2=O)cc1", "Potency": "active: 20 µM"}, {"smiles": "Cc1ccc(N2CC(C(=O)Nc3ccc(N(C)C)cc3)CC2=O)cc1C", "note": "(stereo not drawn)", "Potency": "inconclusive [inhibitor, single point]"}, {"smiles": "COc1cccc(CNCC(=O)N2C(C)CCCC2C)c1", "note": "(stereo not drawn)", "Potency": "inconclusive [inhibitor, single point]"}, {"smiles": "COc1cc(/C=C(\\C#N)C(=O)N2CCOCC2)cc(Br)c1O", "Potency": "inconclusive [inhibitor, single point]"}, {"smiles": "CCOc1ccc(C2CC(=O)NC3=C2C(=O)CCC3)cc1Cl", "note": "(stereo not drawn)", "Potency": "inconclusive [inhibitor, partial curve, poor fit]"}, {"smiles": "O=c1c2ccccc2nc2ccc(NCc3ccco3)nn12", "Potency": "inconclusive [inhibitor, partial curve]"}, {"smiles": "Cc1oc(C(C)(C)C)cc1C(=O)N1CCN(C(c2ccccc2)c2ccccc2)CC1", "Potency": "active: 8.91 µM"}, {"smiles": "NC1=NC(=O)/C(=C\\c2ccc(O)c([N+](=O)[O-])c2)S1", "Potency": "inactive"}, {"smiles": "CNc1ccc(Br)cc(C(=O)/C=C/c2ccc3c(c2)OCO3)c1=O", "Potency": "active: 6.31 µM"}, {"smiles": "Cn1c(-c2ccc(CN3CCCCC3)o2)nc2ccccc21", "Potency": "inconclusive [inhibitor, single point]"}, {"smiles": "CCOc1cc(NC(=S)NCCCOC)c(OCC)cc1NC(=O)c1ccco1", "Potency": "inconclusive [inhibitor, single point]"}, {"smiles": "CC(=O)Nc1ccc(C(=O)CSc2nc3ccccc3n2CC(=O)N2CCCC2)cc1", "Potency": "active: 25.1 µM"}, {"smiles": "Cn1c(=O)[nH]c(=O)c2c1nc(Br)n2CCC(=O)c1ccccc1", "Potency": "active: 3.55 µM"}, {"smiles": "Cc1occc1C(=O)NNC(=O)Nc1ccc([N+](=O)[O-])cc1", "Potency": "active: 14.1 µM"}, {"smiles": "CC(=NC(C)C)C1=C(O)CCC1=O", "Potency": "inactive"}, {"smiles": "O=C(CSc1nnnn1Cc1ccccc1)NCCc1ccccc1", "Potency": "inconclusive [inhibitor, single point]"}, {"smiles": "COc1cccc(NC(=O)CSc2nc3ccccc3c(=O)n2CCCC(=O)N2CCCC2)c1", "Potency": "inconclusive [inhibitor, partial curve]"}, {"smiles": "Cc1ccc(S(=O)(=O)/N=C2\\C(=O)c3ccccc3C([O-])=C2n2cc[n+](CCC(C)C)c2)cc1", "Potency": "inconclusive [inhibitor, partial curve]"}, {"smiles": "CC(c1ccccc1)C1OCC(C[N+]2(C)CCCCC2)O1", "note": "(stereo not drawn)", "Potency": "inactive"}, {"smiles": "C=CCn1cnc2scc(-c3ccc(C)cc3)c2c1=O", "Potency": "inactive"}, {"smiles": "FC(F)(F)c1cc(NC(=S)N2c3ccccc3-n3cccc3[C@H]2c2cccnc2)cc(C(F)(F)F)c1", "Potency": "inconclusive [inhibitor, partial curve]"}, {"smiles": "CC(C)CN1CCC(CNC(=O)CCc2nnc(Cc3c[nH]c4ccccc34)o2)CC1", "Potency": "inactive"}, {"smiles": "O=c1ccc2c(o1)/C(=C/C=C(Cl)Cl)CCC2", "Potency": "active: 7.08 µM"}, {"smiles": "Cc1ccc(Cc2c(C)c(C#N)c3[nH]c4ccccc4n3c2=O)cc1", "Potency": "inconclusive [inhibitor, single point]"}, {"smiles": "C#CCn1cc(C=C2C(=O)c3ccccc3C2=O)c2ccccc21", "Potency": "inconclusive [inhibitor, full curve, poor fit]"}, {"smiles": "COc1ccc(Nc2ncnc3c2oc2ccccc23)cc1", "Potency": "inconclusive [inhibitor, single point]"}, {"smiles": "Cc1ccc(N2C(=O)[C@@H]3[C@H](C2=O)C2c4ccccc4C=CN2[C@@H]3C(=O)c2ccco2)cc1", "note": "(stereo partly drawn)", "Potency": "active: 4.47 µM"}, {"smiles": "CC1=C(C(=O)OC(C)C)[C@@H](c2ccc(C)o2)NC(=O)N1", "Potency": "inactive"}, {"smiles": "O=C1Nc2ccccc2C1=Nc1ccc(-c2nnc3n2CCCCC3)cc1", "Potency": "inconclusive [inhibitor, partial curve]"}, {"smiles": "COc1cc(C2NC(=S)NC(c3ccccc3)=C2C(C)=O)cc(Br)c1OCC(N)=O", "note": "(stereo not drawn)", "Potency": "active: 14.1 µM"}, {"smiles": "COc1cc(OC)cc(C(=O)NC(=S)Nc2ccc(N3CCCC3)cc2)c1", "Potency": "active: 11.2 µM"}, {"smiles": "N#C/C(=C\\c1cccc([N+](=O)[O-])c1)c1nnc2n1CCCCC2", "Potency": "active: 20 µM"}, {"smiles": "CN1CCc2c(cc(O)c(O)c2Cl)C(c2cccc(Cl)c2)C1", "note": "(stereo not drawn)", "Potency": "inactive"}, {"smiles": "O=C(COc1ccccc1Cl)NCCc1ccc2c(c1)OCCO2", "Potency": "inconclusive [inhibitor, single point]"}, {"smiles": "O=C(O)c1cc(=O)cc(C(=O)O)[nH]1", "Potency": "inactive"}, {"smiles": "COC(=O)C1=CN(C2CC2)C=C(C(=O)OC)C1c1ccc(C(F)(F)F)cc1", "Potency": "inconclusive [inhibitor, partial curve]"}, {"smiles": "COc1ccc(Oc2c(Cl)cnn(-c3ccc(Cl)c(Cl)c3)c2=O)cc1", "Potency": "inactive"}, {"smiles": "O=C(C1=C[C@H](C2CCCCC2)C[C@H](OCCCCO)O1)N1CCN(Cc2ccccc2)CC1", "Potency": "active: 14.1 µM"}, {"smiles": "O=C(c1ccco1)N1CCC2(CCCN(Cc3ccncc3)C2)CC1", "Potency": "inconclusive [inhibitor, single point]"}, {"smiles": "CCOc1ccc(C2Oc3nc(SC)nnc3-c3ccccc3N2C(C)=O)cc1OC", "note": "(stereo not drawn)", "Potency": "inactive"}, {"smiles": "CCc1cccc2c(=O)c(C(=O)NCCCOC)c[nH]c12", "Potency": "active: 2 µM"}, {"smiles": "COc1cc(C(=O)NC(=S)NNC(=O)[C@H]2C[C@@H]2c2ccccc2)cc(OC)c1OC", "Potency": "inactive"}, {"smiles": "O=C(COC(=O)c1ccccc1NC(=O)c1ccco1)Nc1ccc2c(c1)OC(F)(F)O2", "Potency": "inconclusive [inhibitor, single point]"}, {"smiles": "CSCCC1NC2(C(=O)Nc3c2ccc(Cl)c3C)[C@@H]2C(=O)N(C3CCCC3)C(=O)[C@H]12", "note": "(stereo partly drawn)", "Potency": "inconclusive [inhibitor, single point]"}, {"smiles": "COc1cccc(-c2nnc(SCC(=O)NCc3ccc4c(c3)OCO4)n2Cc2ccco2)c1", "Potency": "inconclusive [inhibitor, single point]"}, {"smiles": "O=S(=O)(Cc1ccccc1)N1CCc2ccccc21", "Potency": "inconclusive [inhibitor, partial curve]"}, {"smiles": "CCc1ccc2c(c1)N(C[C@H](C)CN(C)C)c1ccccc1S2", "activity, negative = inhibition": "inactive: 2.47% [at 13.5 µM]"}, {"smiles": "Cc1cc(Br)c(NC(=O)CN(C)CCOc2ccccc2)c(Br)c1", "Potency": "inconclusive [inhibitor, partial curve]"}, {"smiles": "C=CCN1C(=O)/C(=C/c2ccc(N(C)C)cc2)S/C1=N\\c1nnc(CC)s1", "Potency": "inconclusive [inhibitor, single point]"}, {"smiles": "C(=N\\n1cnnc1SCc1ccccc1)/c1ccco1", "Potency": "inconclusive [inhibitor, single point]"}, {"smiles": "O=C(O)Cc1ccc(NC(=S)Nc2cccc(Cl)c2Cl)cc1", "Potency": "inconclusive [inhibitor, single point]"}, {"smiles": "COc1cccc2c(=O)cc(C)n(CC(=O)Nc3cccc(C)c3)c12", "Potency": "inconclusive [inhibitor, single point]"}, {"smiles": "Cc1ccccc1OCC(=O)Nc1ccc2c(c1)Cc1ccccc1-2", "Potency": "inactive"}, {"smiles": "O=S(=O)(c1ccccc1)N1CCN(C2CCCCCCC2)CC1", "Potency": "inconclusive [inhibitor, single point]"}, {"smiles": "CC(=O)NC(C)C(=O)OCC(=O)c1ccc(-c2ccccc2)cc1", "note": "(stereo not drawn)", "Potency": "inconclusive [inhibitor, single point]"}, {"smiles": "CCCC(=O)Nc1ccc(C(=O)N/N=C/c2ccc[nH]2)cc1", "Potency": "inconclusive [inhibitor, single point]"}, {"smiles": "CC1CC(C)CN(C(=O)CSC2=Nc3ccccc3C3=NC(Cc4c[nH]c5ccccc45)C(=O)N23)C1", "note": "(stereo not drawn)", "Potency": "inconclusive [inhibitor, partial curve]"}, {"smiles": "Cc1ccc(-c2nc3ccc(Cl)cc3n2OC(C)C(=O)O)cc1", "note": "(stereo not drawn)", "Potency": "inactive"}, {"smiles": "Cn1nc(C(=O)OCC(=O)N2CCc3ccccc32)c2ccccc2c1=O", "Potency": "inconclusive [inhibitor, single point]"}, {"smiles": "O=C(CCC(=O)NNc1nc2ccccc2c2nc(-c3ccccc3)nn12)NCCCN1CCCC1=O", "Potency": "inactive"}, {"smiles": "CN1C(=O)CC(N2CCN(c3ncccn3)CC2)C1=O", "note": "(stereo not drawn)", "Potency": "inconclusive [inhibitor, single point]"}, {"smiles": "Cc1ccc(S(=O)(=O)NNC2CC(=O)N(c3ccc(Br)cc3)C2=O)cc1", "note": "(stereo not drawn)", "Potency": "inconclusive [inhibitor, single point]"}, {"smiles": "Cc1nc2ccc(NC(=O)c3cccc(S(=O)(=O)N(C)c4ccccc4)c3)cc2s1", "Potency": "inconclusive [inhibitor, partial curve]"}, {"smiles": "O=C1CCCC(=O)N1c1ccc(N2CCOCC2)c([N+](=O)[O-])c1", "Potency": "inactive"}, {"smiles": "Cc1ccc(N(CC(O)CN2CCOCC2)S(=O)(=O)c2ccc3ccccc3c2)cc1", "note": "(stereo not drawn)", "Potency": "inconclusive [inhibitor, partial curve]"}, {"smiles": "N=c1c(S(=O)(=O)c2ccccc2)cc2c(=O)n3ccccc3nc2n1Cc1ccco1", "Potency": "inconclusive [inhibitor, partial curve]"}, {"smiles": "O=C(Nc1ccccn1)C(=O)N1CCCCC1", "Potency": "inactive"}, {"smiles": "Fc1ccc(Nc2nnns2)cc1", "Potency": "active: 2 µM"}, {"smiles": "CCOc1ccc(CC(=O)C2C(=O)CC(C)(C)CC2=O)cc1OCC", "Potency": "active: 7.94 µM"}]}]}
